Reference: patent US20130189747A1, “Compositions Comprising A Polypeptide Having Cellulolytic Enhancing Activity And A Sulfur-Containing Compound And Uses Thereof” (priority 2010, published 2013)

Legend:
[1] = test system: Trichoderma reesei cellulase composition; assay: Hydrolysis of milled washed pretreated corn stover (PCS) by the Trichoderma reesei cellulase composition with/without GH61 polypeptide and sulfur-containing compound; format: biochemical; conditions: milled washed PCS, T. aurantiacus GH61A polypeptide, L-cysteine 5 mM present
Method: (§1) The effect of various sulfur-containing compounds on the cellulolytic enhancing activity of GH61 polypeptides was evaluated according to the procedures described below.

[2] = test system: Trichoderma reesei cellulase composition; assay: Hydrolysis of AVICEL® (microcrystalline cellulose) by the Trichoderma reesei cellulase composition with/without GH61 polypeptide and sulfur-containing compound; format: biochemical
Method: as §1

Question: `N[C@@H](CS)C(=O)O` [L-cysteine] was tested. Which “GH61 effect (Equation 4)” value ([1]; 7 days) did it give?
Answer: approximately 1.35±0.01

Question: And the “GH61 effect (Equation 4)” value ([1]; FIG. 2)?
Answer: greater than 1

Question: What about the “sulfur-containing compound effect(+GH61)” value ([2]; AVICEL®, L-cysteine 10 mM, T. aurantiacus GH61A polypeptide 14 mg per liter (25% w/w of cellulase), 1 and 3 days, FIG. 3A) of the same molecule?
Answer: > 1

Question: What about the “sulfur-containing compound effect(no GH61)” value ([2]; AVICEL®, L-cysteine 10 mM, no GH61 polypeptide, 1 and 3 days, FIG. 3A) of the same molecule?
Answer: > 1

Question: And the “GH61 effect (ratio of percent conversion with/without GH61 polypeptide, Equation 4)” value ([2]; AVICEL®, T. aurantiacus GH61A polypeptide, sulfur-containing compound present (L-cysteine or glutathione 5 mM), 1, 3 and 7 days, FIG. 1)?
Answer: greater than 1

Question: And the “Cellulolytic enhancing activity of the GH61 polypeptide in the presence of the compound” value ([2]; hydrolysis of AVICEL®, T. aurantiacus GH61A polypeptide)?
Answer: apparent

B1: T. reesei GH61B polypeptide: GH61B polypeptide having cellulolytic enhancing activity (SEQ ID NO: 16), recombinantly prepared in Aspergillus oryzae JaL250 (protein, listed as Trichoderma reesei)
chain: MKSCAILAALGCLAGSVLGHGQVQNFTINGQYNQGFILDYYYQKQNTGHFPNVAGWYAEDLDLGFISPDQYTTPDIVCHKNAAPGAISATAAAGSNIVFQWGPGVWPHPYGPIVTYVVECSGSCTTVNKNNLRWVKIQEAGINYNTQVWAQQDLINQGNKWTVKIPSSLRPGNYVFRHELLAAHGASSANGMQNYPQCVNIAVTGSGTKALPAGTPATQLYKPTDPGILFNPYTTITSYTIPGPALWQG
Question: For B1, which “Effect of the GH61 polypeptide on hydrolysis of AVICEL® (microcrystalline cellulose) by the T. reesei cellulase composition” value ([2]; in the absence of a sulfur-containing compound, listed as Trichoderma reesei GH61B polypeptide) is on record?
Answer: did not significantly enhance
